Test results reported in the supplement of paper PMC8728848.
Some of the results follow.

Experiments:
Assay in all cases: glycan array binding signal (z-score within array); higher = stronger binding
Settings in all cases: glycan notation: IUPAC condensed, linker removed
[1] = target: Gal(a1-3)Gal(b1-3)GlcNAc
In short: (§1)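 Glycan array data were curated from 3228 arrays in the Consortium for Functional Glycomics database and kept only where the protein sequence was available. Glycan names were converted to IUPAC-condensed notation, and columns mapping to the same glycan were averaged. The binding signal is a within-array Z-score, averaged across arrays of the same protein sequence at different concentrations or buffers and across linkers. Negative Z-scores can be read as non-binding.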

[2] = target: Gal(a1-3)Gal(b1-3)GlcNAc(b1-2)Man
In short: as §1

[3] = target: Gal(a1-3)Gal(b1-3)GlcNAc(b1-2)Man(a1-3)[Gal(a1-3)Gal(b1-3)GlcNAc(b1-2)Man(a1-6)]Man(b1-4)GlcNAc(b1-4)GlcNAc
In short: as §1

[4] = target: Gal(a1-3)Gal(b1-3)GlcNAc(b1-3)GalNAc
In short: as §1

[5] = target: Gal(a1-3)Gal(b1-3)GlcNAc(b1-6)GalNAc
In short: as §1

[6] = target: Gal(a1-3)Gal(b1-3)[Fuc(a1-4)]GlcNAc(b1-2)Man(a1-3)[Gal(a1-3)Gal(b1-3)[Fuc(a1-4)]GlcNAc(b1-2)Man(a1-6)]Man(b1-4)GlcNAc(b1-4)GlcNAc
In short: as §1

[7] = target: Gal(a1-3)Gal(b1-4)Glc
In short: as §1

[8] = target: Gal(a1-3)Gal(b1-4)GlcNAc
In short: as §1

[9] = target: Gal(a1-3)Gal(b1-4)GlcNAc(b1-2)Man
In short: as §1

[10] = target: Gal(a1-3)Gal(b1-4)GlcNAc(b1-2)Man(a1-3)[Gal(a1-3)Gal(b1-4)GlcNAc(b1-2)Man(a1-6)]Man(b1-4)GlcNAc(b1-4)GlcNAc
In short: as §1

[11] = target: Gal(a1-3)Gal(b1-4)GlcNAc(b1-3)GalNAc
In short: as §1

[12] = target: Gal(a1-3)Gal(b1-4)GlcNAc(b1-6)GalNAc
In short: as §1

[13] = target: Gal(a1-3)Gal(b1-4)[Fuc(a1-3)]GlcNAc
In short: as §1

[14] = target: Gal(a1-3)Gal(b1-4)[Fuc(a1-3)]GlcNAc(b1-2)Man(a1-3)[Gal(a1-3)Gal(b1-4)[Fuc(a1-3)]GlcNAc(b1-2)Man(a1-6)]Man(b1-4)GlcNAc(b1-4)GlcNAc
In short: as §1

[15] = target: Gal(a1-3)GalNAc
In short: as §1

[16] = target: Gal(a1-3)[Gal(a1-4)]Gal(b1-4)GlcNAc
In short: as §1

[17] = target: Gal(a1-4)Gal(b1-3)GlcNAc(b1-2)Man(a1-3)[Gal(a1-4)Gal(b1-3)GlcNAc(b1-2)Man(a1-6)]Man(b1-4)GlcNAc(b1-4)GlcNAc
In short: as §1

[18] = target: Gal(a1-4)Gal(b1-4)Glc
In short: as §1

[19] = target: Gal(a1-4)Gal(b1-4)GlcNAc
In short: as §1

[20] = target: Gal(a1-4)Gal(b1-4)GlcNAc(b1-2)Man(a1-3)[Gal(a1-4)Gal(b1-4)GlcNAc(b1-2)Man(a1-6)]Man(b1-4)GlcNAc(b1-4)GlcNAc
In short: as §1

[21] = target: Gal(a1-4)Gal(b1-4)GlcNAc(b1-3)Gal(b1-4)Glc
In short: as §1

[22] = target: Gal(a1-4)GlcNAc
In short: as §1

[23] = target: Gal(a1-6)Glc
In short: as §1

[24] = target: Gal(b1-2)Gal
In short: as §1

[25] = target: Gal(b1-3)Gal
In short: as §1

[26] = target: Gal(b1-3)Gal(b1-4)GlcNAc
In short: as §1

[27] = target: Gal(b1-3)GalNAc
In short: as §1

[28] = target: Gal(b1-3)GalNAc(a1-3)[Fuc(a1-2)]Gal(b1-4)Glc
In short: as §1

[29] = target: Gal(b1-3)GalNAc(a1-3)[Fuc(a1-2)]Gal(b1-4)GlcNAc
In short: as §1

[30] = target: Gal(b1-3)GalNAc(b1-3)Gal
In short: as §1

[31] = target: Gal(b1-3)GalNAc(b1-3)Gal(a1-4)Gal(b1-4)Glc
In short: as §1

[32] = target: Gal(b1-3)GalNAc(b1-4)Gal(b1-4)Glc
In short: as §1

[33] = target: Gal(b1-3)GalNAc(b1-4)[Neu5Ac(a2-3)]Gal(b1-4)Glc
In short: as §1

[34] = target: Gal(b1-3)GlcNAc
In short: as §1

[35] = target: Gal(b1-3)GlcNAc(a1-3)Gal(b1-4)GlcNAc
In short: as §1

[36] = target: Gal(b1-3)GlcNAc(a1-6)Gal(b1-4)GlcNAc
In short: as §1

[37] = target: Gal(b1-3)GlcNAc(b1-2)Man
In short: as §1

[38] = target: Gal(b1-3)GlcNAc(b1-2)Man(a1-3)[Gal(b1-3)GlcNAc(b1-2)Man(a1-6)]Man(b1-4)GlcNAc(b1-4)GlcNAc
In short: as §1

B1: PX14343A-bvu-539-29-539 (Bacteroides vulgatus) (protein)
chain: DSLTESSSNTFWQTPDDALMALASCYDALQSNQLYNSDQYSLGPLYMDCISDNGGHFNWSGWMEGYDMAMGIHTPSSSIIGSYWKDCYEVISRCNVLIANIDRVDMDASQKAIYQAEAKTIRALMYINLTMTYQDVPFLTAPLTIDEAECEKTDRAAIVAHVMTDLQDAAEVLPQNASSRGHITKGAALSLLGRVALYNEKWDDAIAAYKQVQGLGYSLDPSYAKLFTQSGETSPEIIFAVRYEGPGMSEGAAFNAHWNTPLEAMNGTIDLADAYYCKDGKPTTDTKIAELNGGGGLDVSKPNPAHFENRDPRLYSTLFVPGMLWNGKGGIDTSASNPYANVYGGAAASLSTVYVYKYFDPTDTSNSWDNGQDFYVVRYAEVLLSLAEAMVQKGGYVYSDVTALVNEVRQRADVNMPTVEEVEGTSLSKDELLEVIKHERRVELAFEGLRLFDLYRWKELDKAVANIENERTMYGLAYEARKFNGERDYVWPLPTAELDTNKKLVQHDLWK
- glycan array binding signal (z-score) [1]: 0.018
- glycan array binding signal (z-score) [2]: -0.278
- glycan array binding signal (z-score) [3]: 0.106
- glycan array binding signal (z-score) [4]: -0.01
- glycan array binding signal (z-score) [5]: -0.397
- glycan array binding signal (z-score) [6]: -0.005
- glycan array binding signal (z-score) [7]: -0.306
- glycan array binding signal (z-score) [8]: -0.412
- glycan array binding signal (z-score) [9]: -0.226
- glycan array binding signal (z-score) [10]: -0.103
- glycan array binding signal (z-score) [11]: -0.358
- glycan array binding signal (z-score) [12]: 0.952
- glycan array binding signal (z-score) [13]: -0.414
- glycan array binding signal (z-score) [14]: -0.051
- glycan array binding signal (z-score) [15]: -0.288
- glycan array binding signal (z-score) [16]: 6.76
- glycan array binding signal (z-score) [17]: 0.517
- glycan array binding signal (z-score) [18]: -0.184
- glycan array binding signal (z-score) [19]: -0.281
- glycan array binding signal (z-score) [20]: 2.41
- glycan array binding signal (z-score) [21]: -0.164
- glycan array binding signal (z-score) [22]: 0.11
- glycan array binding signal (z-score) [23]: -0.383
- glycan array binding signal (z-score) [24]: 0.085
- glycan array binding signal (z-score) [25]: -0.212
- glycan array binding signal (z-score) [26]: 0.494
- glycan array binding signal (z-score) [27]: -0.237
- glycan array binding signal (z-score) [28]: -0.143
- glycan array binding signal (z-score) [29]: -0.445
- glycan array binding signal (z-score) [30]: -0.511
- glycan array binding signal (z-score) [31]: -0.229
- glycan array binding signal (z-score) [32]: -0.346
- glycan array binding signal (z-score) [33]: -0.016
- glycan array binding signal (z-score) [34]: -0.258
- glycan array binding signal (z-score) [35]: -0.396
- glycan array binding signal (z-score) [36]: 0.016
- glycan array binding signal (z-score) [37]: -0.168
- glycan array binding signal (z-score) [38]: 0.765
